Patent US12577227B2, “WDR5 inhibitors and modulators” (Vanderbilt University, priority 2019, dated 2026)

target: WDR5 (Homo sapiens, UniProt P61964); experiment: TR-FRET competition assay (MLL peptide binding, displacement of 10mer-Thr-FAM probe); details: WDR5-His tag (Δ23, residues 24-334) 2 nM; 10mer-Thr-FAM 150 nM; Tb-anti-HIS 1 nM; 60 minutes room temperature; pH 7.2; read-out: Ki for Inhibition of WDR5 by TR-FRET assay

Question: For COc1ccnc(Cn2cnc3c(-c4cn(C)nc4C(F)(F)F)cc(Cn4ccnc4C)cc3c2=O)c1 [Example 55, 3-((4-Methoxypyridin-2-yl)methyl)-6-((2-methyl-1H-imidazol-1-yl)methyl)-8-(1-methyl-3-(trifluoromethyl)-1H-pyrazol-4-yl)quinazolin-4(3H)-one], which Ki is on record?
Answer: 0.12 nM

Question: For COc1ccnc([C@H](C)N2CCOc3c(cc(Cn4ccnc4C)cc3-c3cc(C)ccc3C)C2=O)c1 [Example 56, (S)-9-(2,5-Dimethylphenyl)-4-(1-(4-methoxypyridin-2-yl)ethyl)-7-((2-methyl-1H-imidazol-1-yl)methyl)-3,4-dihydrobenzo[f][1,4]oxazepin-5(2H)-one], which Ki is on record?
Answer: < 0.05 nM

Question: With COc1ccc2c(c1)C(N1CCOc3c(cc(Cn4ccnc4C)cc3-c3cn(C)nc3C(F)(F)F)C1=O)CCC2 (stereo not shown) [Example 57, 4-(7-Methoxy-1,2,3,4-tetrahydronaphthalen-1-yl)-7-((2-methyl-1H-imidazol-1-yl)methyl)-9-(1-methyl-3-(trifluoromethyl)-1H-pyrazol-4-yl)-3,4-dihydrobenzo[f][1,4]oxazepin-5(2H)-one] as the compound, how does the Ki read?
Answer: 0.062 nM

Question: For COc1ccc2nccc(N3CCOc4c(cc(Cn5ccnc5C)cc4-c4cn(C)nc4C(F)(F)F)C3=O)c2c1 [Example 58, 4-(6-Methoxyquinolin-4-yl)-7-((2-methyl-1H-imidazol-1-yl)methyl)-9-(1-methyl-3-(trifluoromethyl)-1H-pyrazol-4-yl)-3,4-dihydrobenzo[f][1,4]oxazepin-5(2H)-one], which Ki is on record?
Answer: 0.063 nM

Question: For CCn1cc(-c2cc(Cn3ccnc3)cc3c2OCCN([C@H](c2cc(OC)ccn2)C2CC2)C3=O)c(C(F)(F)F)n1 [Example 59, (S)-7-((1H-Imidazol-1-yl)methyl)-4-(cyclopropyl(4-methoxypyridin-2-yl)methyl)-9-(1-ethyl-3-(trifluoromethyl)-1H-pyrazol-4-yl)-3,4-dihydrobenzo[f][1,4]oxazepin-5(2H)-one], which Ki is on record?
Answer: < 0.05 nM

Question: CCn1cc(-c2cc(Cn3ccnc3C)cc3c2OCCN([C@H](c2cc(OC)ccn2)C2CC2)C3=O)c(C(F)(F)F)n1 [Example 60, (S)-4-(Cyclopropyl(4-methoxypyridin-2-yl)methyl)-9-(1-ethyl-3-(trifluoromethyl)-1H-pyrazol-4-yl)-7-((2-methyl-1H-imidazol-1-yl)methyl)-3,4-dihydrobenzo[f][1,4]oxazepin-5(2H)-one] was tested. Which Ki did it give?
Answer: < 0.05 nM

Question: For CCc1nccn1Cc1cc2c(c(-c3cn(CC)nc3C(F)(F)F)c1)OCCN([C@H](c1cc(OC)ccn1)C1CC1)C2=O [Example 61, (S)-4-(Cyclopropyl(4-methoxypyridin-2-yl)methyl)-7-((2-ethyl-1H-imidazol-1-yl)methyl)-9-(1-ethyl-3-(trifluoromethyl)-1H-pyrazol-4-yl)-3,4-dihydrobenzo[f][1,4]oxazepin-5(2H)-one], which Ki is on record?
Answer: < 0.05 nM

Question: Which Ki does the source give for CCn1cc(-c2cc(Cn3ccnc3)cc3c(=O)n([C@H](c4cc(OC)ccn4)C4CC4)cnc23)c(C(F)(F)F)n1 [Example 62, (S)-6-((1H-imidazol-1-yl)methyl)-3-(cyclopropyl(4-methoxypyridin-2-yl)methyl)-8-(1-ethyl-3-(trifluoromethyl)-1H-pyrazol-4-yl)quinazolin-4(3H)-one] here?
Answer: 0.056 nM

Question: How did the Ki turn out when CCn1cc(-c2cc(Cn3ccnc3)cc3c2OCCN([C@H]2CCOc4ccc(OC)cc42)C3=O)c(C(F)(F)F)n1 [Example 63, (S)-7-((1H-imidazol-1-yl)methyl)-9-(1-ethyl-3-(trifluoromethyl)-1H-pyrazol-4-yl)-4-(6-methoxychroman-4-yl)-3,4-dihydrobenzo[f][1,4]oxazepin-5(2H)-one] was run?
Answer: < 0.05 nM

Question: Which Ki does the source give for CCn1cc(-c2cc(Cn3ccnc3C)cc3c2OCCN([C@H]2CCOc4ccc(OC)cc42)C3=O)c(C(F)(F)F)n1 [Example 64, (S)-9-(1-ethyl-3-(trifluoromethyl)-1H-pyrazol-4-yl)-4-(6-methoxychroman-4-yl)-7-((2-methyl-1H-imidazol-1-yl)methyl)-3,4-dihydrobenzo[f][1,4]oxazepin-5(2H)-one] here?
Answer: < 0.05 nM

Question: With CCn1cc(-c2cc(Cn3ccnc3)cc3c2NC(=O)CN([C@H](c2cc(OC)ccn2)C2CC2)C3=O)c(C(F)(F)F)n1 [Example 65, (S)-7-((1H-imidazol-1-yl)methyl)-4-(cyclopropyl(4-methoxypyridin-2-yl)methyl)-9-(1-ethyl-3-(trifluoromethyl)-1H-pyrazol-4-yl)-3,4-dihydro-1H-benzo[e][1,4]diazepine-2,5-dione] as the compound, how does the Ki read?
Answer: < 0.05 nM

Question: With CCOC(=O)c1cc(CC)cc2c(N3CCOc4c(cc(Cn5ccnc5)cc4-c4cn(C)nc4C(F)(F)F)C3=O)ccnc12 [Example 66, Ethyl 4-(7-((1H-imidazol-1-yl)methyl)-9-(1-methyl-3-(trifluoromethyl)-1H-pyrazol-4-yl)-5-oxo-2,3-dihydrobenzo[f][1,4]oxazepin-4(5H)-yl)-6-ethylquinoline-8-carboxylate] as the compound, how does the Ki read?
Answer: 0.05 nM

Question: Which Ki does the source give for CCc1cc(OC)c2nccc(N3CCOc4c(cc(Cn5ccnc5)cc4-c4cn(C)nc4C(F)(F)F)C3=O)c2c1 [Example 67, 7-((1H-imidazol-1-yl)methyl)-4-(6-ethyl-8-methoxyquinolin-4-yl)-9-(1-methyl-3-(trifluoromethyl)-1H-pyrazol-4-yl)-3,4-dihydrobenzo[f][1,4]oxazepin-5(2H)-one] here?
Answer: < 0.05 nM

Question: How did the Ki turn out when COc1ccc2nc(C)cc(N3CCOc4c(cc(Cn5ccnc5)cc4-c4cn(C)nc4C(F)(F)F)C3=O)c2c1 [Example 68, 7-((1H-imidazol-1-yl)methyl)-4-(6-methoxy-2-methylquinolin-4-yl)-9-(1-methyl-3-(trifluoromethyl)-1H-pyrazol-4-yl)-3,4-dihydrobenzo[f][1,4]oxazepin-5(2H)-one] was run?
Answer: < 0.05 nM

Question: COc1cc(OC)c2nc(C)cc(N3CCOc4c(cc(Cn5ccnc5)cc4-c4cn(C)nc4C(F)(F)F)C3=O)c2c1 [Example 69, 7-((1H-imidazol-1-yl)methyl)-4-(6,8-dimethoxy-2-methylquinolin-4-yl)-9-(1-methyl-3-(trifluoromethyl)-1H-pyrazol-4-yl)-3,4-dihydrobenzo[f][1,4]oxazepin-5(2H)-one] was tested. Which Ki did it give?
Answer: < 0.05 nM

Question: With COc1cnc2cccc(N3CCOc4c(cc(Cn5ccnc5)cc4-c4cn(C)nc4C(F)(F)F)C3=O)c2c1 [Example 70, 7-((1H-imidazol-1-yl)methyl)-4-(3-methoxyquinolin-5-yl)-9-(1-methyl-3-(trifluoromethyl)-1H-pyrazol-4-yl)-3,4-dihydrobenzo[f][1,4]oxazepin-5(2H)-one] as the compound, how does the Ki read?
Answer: < 0.05 nM

Question: How did the Ki turn out when CCc1cc(C(=O)NC)c2nccc(N3CCOc4c(cc(Cn5ccnc5)cc4-c4cn(C)nc4C(F)(F)F)C3=O)c2c1 [Example 72, 4-(7-((1H-imidazol-1-yl)methyl)-9-(1-methyl-3-(trifluoromethyl)-1H-pyrazol-4-yl)-5-oxo-2,3-dihydrobenzo[f][1,4]oxazepin-4(5H)-yl)-6-ethyl-N-methylquinoline-8-carboxamide] was run?
Answer: 0.064 nM

Question: How did the Ki turn out when CCc1cc(C(=O)NCCN(C)C)c2nccc(N3CCOc4c(cc(Cn5ccnc5)cc4-c4cn(C)nc4C(F)(F)F)C3=O)c2c1 [Example 73, 4-(7-((1H-imidazol-1-yl)methyl)-9-(1-methyl-3-(trifluoromethyl)-1H-pyrazol-4-yl)-5-oxo-2,3-dihydrobenzo[f][1,4]oxazepin-4(5H)-yl)-N-(2-(dimethylamino)ethyl)-6-ethylquinoline-8-carboxamide] was run?
Answer: < 0.05 nM

Question: Which Ki does the source give for CCc1cc(C(=O)NCCOC)c2nccc(N3CCOc4c(cc(Cn5ccnc5)cc4-c4cn(C)nc4C(F)(F)F)C3=O)c2c1 [Example 74, 4-(7-((1H-imidazol-1-yl)methyl)-9-(1-methyl-3-(trifluoromethyl)-1H-pyrazol-4-yl)-5-oxo-2,3-dihydrobenzo[f][1,4]oxazepin-4(5H)-yl)-6-ethyl-N-(2-methoxyethyl)quinoline-8-carboxamide] here?
Answer: 0.053 nM
